# Source: PubChem BioAssay (Tox21)
# Where “and” joins values, the source holds several entries; their conditions need not be identical. Identical values can stand only once. This list was built around the results that the source calls inconclusive (neither active nor inactive); the mix of calls is not that of the screen. Potencies of inconclusive entries are doubtful fits and often do not repeat. Calls of active or inactive are those of the source. The call rests on the fitted dose curve; in most records, active means well fitted cell-killing curve with a large enough effect in the repeat runs; inconclusive means weak or mixed curves, or effect the other way; inactive means flat fitted curve, though single readings scatter.
# Test: qHTS assay to identify small molecule agonists of the androgen receptor (AR) signaling pathway in the presence of an antagonist - cell viability counter screen (AID 1259379); further: nearly all actives have a fitted effect of over 25% in size
# Settings: MDA-kb2 viability, CellTiter-Fluor, 16 h; series mostly up to 92.4 µM
# Source text: National Center for Advancing Translational Sciences [NCATS]
# NIH Chemical Genomics Center [NCGC]
# U.S. Environmental Protection Agency [EPA]
# National Institutes of Environmental Health Sciences [NIEHS]
# National Toxicology Program [NTP]
# U.S. Food and Drug Administration [FDA]
# Androgen receptor (AR) is an important member of nuclear receptor family. Its signaling plays a critical role in AR-dependent prostate cancer and other androgen related diseases. Considerable attention has been given in the past decades to develop methods to study and screen for the environmental chemicals that have the potential to interfere with metabolic homeostasis, reproduction, developmental and behavioral functions. Therefore AR binding assay for screening against androgen agonists and antagonists can be used to identify potential endocrine disruptors.
# MDA-kb2 cells (from ATCC, deposited by Wilson et al.) are human breast carcinoma cells that were stably transfected with a luciferase reporter gene under control of the MMTV promoter that contains response elements for both androgen receptor (AR) and glucocorticoid receptor (GR). This particular screening for measuring luciferase reporter gene activity using MDA-kb2 cells against Tox21 10K library compounds is a confirmation study on agonist mode screening in the presence of AR-antagonist compound (Nilutamide) at 3.0uM final concentration. The cytotoxicity of the compounds was tested in parallel by measuring the cell viability using CellTiter-Fluor assay system (Promega, Madison, WI) in the same wells.
# Tox21 Assay Protocol Summary:
# MDA-kb2 cells (cells cultured without CO2) were dispensed at 3,000 cells/well in 4uL of culture medium into white wall/solid-bottom 1536-well plates (Corning Life Sciences, Corning, NY) using a Multidrop Combi (Thermo Fisher Scientific Inc., Waltham, MA) dispenser. The assay plates were incubated at 37C and 0% CO2 for 5hr. One uL of 3.0uM (final concentration) Nilutamide or assay buffer was added using two separate tips of Flying Reagent Dispenser (FRD, Aurora Discovery, San Diego, CA). Then 23nL of compounds dissolved in DMSO at 15 concentrations and positive controls were transferred to the assay plates using a Pintool station (Wako, San Diego, CA). The assay plates were incubated at 37C and 0% CO2 for 16 hr. After 15hr incubation at 37C, 1uL/well CellTiter-Fluor reagent (Promega Corporation) was added to each well of the assay plates using FRD. After 1hr incubation at 37C and 0% CO2, the fluorescence signal was measured using a ViewLux plate reader (PerkinElmer, Shelton, CT).
# Potency means the concentration at half of the fitted maximal effect; tags describe the fitted curve by direction and shape.
row,Structure (SMILES),Potency
1,CCCCCCOc1cc(C)c(O)c(C)c1C,"inconclusive: 77.9 µM [cytotoxic, partial curve, poor fit]"
2,CC1=CC(=O)c2ccccc2C1=O,"inconclusive: 33.5 µM [cytotoxic, single point]"
3,CC[C@H](C)C(=O)O[C@H]1C[C@@H](C)C=C2C=C[C@H](C)[C@H](CC[C@@H]3C[C@@H](O)CC(=O)O3)[C@H]21,"inconclusive: 76.6 µM [cytotoxic, partial curve, poor fit]"
4,C[C@H]1O[C@@H](O[C@H]2CC[C@@]3(C)[C@H](CC[C@@H]4[C@@H]3C[C@@H](O)[C@]3(C)[C@@H](C5=CC(=O)OC5)CC[C@]43O)C2)C[C@H](O)[C@@H]1O[C@H]1C[C@H](O)[C@H](O[C@H]2C[C@H](O)[C@H](O[C@@H]3O[C@H](CO)[C@@H](O)[C@H](O)[C@H]3O)[C@@H](C)O2)[C@@H](C)O1,"inconclusive: 1.19 µM [cytotoxic, single point]"
5,CCOc1ccc([N+](=O)[O-])cc1,"inconclusive: 69.6 µM [cytotoxic, single point]"
6,Nc1cc([N+](=O)[O-])ccc1O,active: 48.6 µM and active: 54.2 µM
7,O=C1CCC/C=C\CCCCCCCCCC1,"inconclusive: 0.611 µM [cytotoxic, single point]"
8,OCCN1CCN(CC/C=C2/c3ccccc3Sc3ccc(C(F)(F)F)cc32)CC1,"inconclusive: 33.5 µM [cytotoxic, single point]"
9,CCCCCCCCCCCCN(CCO)CCO,active: 60.9 µM
10,Oc1c(Br)cc(Br)c2cccnc12,"inconclusive: 26.6 µM [cytotoxic, partial curve]"
11,Cn1cc(C(=O)[C@@H]2CCc3nc[nH]c3C2)c2ccccc21,inactive
12,O=C(OC[C@H]1O[C@@H](OC(=O)c2cc(O)c(O)c(OC(=O)c3cc(O)c(O)c(O)c3)c2)[C@H](OC(=O)c2cc(O)c(O)c(OC(=O)c3cc(O)c(O)c(O)c3)c2)[C@@H](OC(=O)c2cc(O)c(O)c(OC(=O)c3cc(O)c(O)c(O)c3)c2)[C@@H]1OC(=O)c1cc(O)c(O)c(OC(=O)c2cc(O)c(O)c(O)c2)c1)c1cc(O)c(O)c(OC(=O)c2cc(O)c(O)c(O)c2)c1,"inconclusive: 14.7 µM [cytotoxic, partial curve]"
13,O=C(Nc1ccccc1SSc1ccccc1NC(=O)c1ccccc1)c1ccccc1,"inconclusive: 68.9 µM [cytotoxic, single point] and inconclusive: 48.6 µM [cytotoxic, partial curve]"
14,C#CC1(O)CC[C@H]2[C@@H]3CCC4=CCCC[C@@H]4[C@H]3CC[C@@]21C (stereo not given in full),"inconclusive: 33.5 µM [cytotoxic, single point]"
15,CC(=O)OC/C=C(C)/C=C/C=C(C)/C=C/C1=C(C)CCCC1(C)C,"inconclusive: 66.9 µM [cytotoxic, partial curve, poor fit]"
16,C=C1C(C)(C)[C@@]2(Cl)C(Cl)[C@]1(Cl)C(Cl)(Cl)C2(Cl)Cl (stereo not given in full),"inconclusive: 67.3 µM [cytotoxic, single point]"
17,C=CCc1cc(S(=O)(=O)c2ccc(O)c(CC=C)c2)ccc1O,inconclusive: 68.6 µM [cytotoxic]
18,Nc1ccc(O)c(C(=O)O)c1,"inconclusive: 60.6 µM [cytotoxic, partial curve, poor fit]"
19,Cc1c(C)c2c(c(C)c1O)CCC(C)(COc1ccc(CC3SC(=O)NC3=O)cc1)O2 (stereo not given),"inconclusive: 68.6 µM [cytotoxic, partial curve, poor fit]"
20,OC1(c2ccc(Cl)c(C(F)(F)F)c2)CCN(CCCC(c2ccc(F)cc2)c2ccc(F)cc2)CC1,active: 18.8 µM

row,Structure (SMILES),Potency
1,CC(=O)Nc1ccc(C(=O)CCl)cc1,"inconclusive: 61.4 µM [cytotoxic, partial curve, poor fit]"
2,Cc1ccc(O)c2ncccc12,"inconclusive: 33.5 µM [cytotoxic, single point]"
3,CCCCCCCCCCCCCCCC[N+](C)(C)Cc1ccccc1,"active: 35.5 µM and active: 55.5 µM and inconclusive: 26.6 µM [cytotoxic, partial curve]"
4,CCCCCCCCCCCCN1CCCC1=O,"inconclusive: 68.6 µM [cytotoxic, single point]"
5,CC(C)(C)CC(C)(C)c1ccc(OCCOCC[N+](C)(C)Cc2ccccc2)cc1,active: 27.3 µM and active: 21.1 µM
6,CCn1c2ccccc2c2cc(N)ccc21,"inconclusive: 67.9 µM [cytotoxic, single point] and inconclusive: 43.3 µM [cytotoxic, partial curve] and inconclusive: 38.6 µM [cytotoxic, partial curve]"
7,CCN=c1cc2oc3cc(NCC)c(C)cc3c(-c3ccccc3C(=O)OCC)c-2cc1C,active: 272 nM and active: 306 nM
8,O=C(c1ccc(O)cc1O)c1ccc(O)cc1O,"inconclusive: 61.1 µM [cytotoxic, partial curve]"
9,CC/C(=C(\c1ccccc1)c1ccc(OCCN(C)C)cc1)c1ccccc1,"inconclusive: 68.5 µM [cytotoxic, single point] and inconclusive: 33.5 µM [cytotoxic, single point]"
10,CC(C)(C)c1ccc(O)c(C(C)(C)C)c1,"inconclusive: 60.9 µM [cytotoxic, partial curve]"
11,CCCCCCCCCCCCCCNCCO,"inconclusive: 33.5 µM [cytotoxic, single point]"
12,Oc1c(Cl)cc(Cl)c2cccnc12,"inconclusive: 10.6 µM [cytotoxic, full curve]"
13,O=C(c1cc(O)c(O)c(O)c1)c1ccc(O)c(O)c1O,"inconclusive: 48.4 µM [cytotoxic, partial curve] and active: 27.3 µM and inconclusive: 21.1 µM [cytotoxic, partial curve]"
14,CN(C)CCCN1c2ccccc2Sc2ccc(Cl)cc21,"inconclusive: 33.5 µM [cytotoxic, partial curve]"
15,COc1ccc(-c2ccc3cc(C(=O)O)ccc3c2)cc1C12CC3CC(CC(C3)C1)C2,"inconclusive: 11.9 µM [cytotoxic, partial curve]"
16,C=C1C[C@H]2[C@@H]3C=C(C)C4=CC(=O)CC[C@]4(C)[C@H]3CC[C@]2(C)[C@@]1(OC(C)=O)C(C)=O,"inconclusive: 35.1 µM [cytotoxic, partial curve] and inactive"
17,CCCCC(CC)COC(=O)c1ccc(O)cc1 (stereo not given),"inconclusive: 68.3 µM [cytotoxic, single point]"
18,C=C1C(CCl)(CCl)C2(Cl)C(Cl)C(Cl)C1(Cl)C2(Cl)Cl (stereo not given),"inconclusive: 67.8 µM [cytotoxic, single point]"
19,O=C1Cc2cc(CCN3CCN(c4nsc5ccccc45)CC3)c(Cl)cc2N1,inconclusive: 33.5 µM [cytotoxic]
20,CCCCCCCCCCCCN,"inconclusive: 68.6 µM [cytotoxic, single point]"
